Measurements published in patent US20100210602A1, “PhoU (PerF), A P[…] INVOLVED IN [sequence] FORMATION AND TOLERANCE TO MULTIPLE ANTIBIOTICS AND [sequence] AS A DRUG TARGET FOR [sequence] BACTERIA” (priority 2006, published 2010).
Several values for one entry are separate records, joined by “and”; a condition that tells them apart may be missing. Equal values may be shown once. Read-outs that look alike come from different tables or passages of the source.

Legend:
Assay type in all cases: cell-based
W3110 = conditions: ampicillin 100 ug/ml
[1] = test system: W3110ΔphoU containing pPhoU118
[2] = test system: W3110ΔphoU containing pPhoUA51H; conditions: ampicillin 100 ug/ml, 1 mM IPTG

SMILES: CC1(C)S[C@@H]2[C@H](NC(=O)[C@H](N)c3ccccc3)C(=O)N2[C@H]1C(=O)O [Ampicillin, ampicillin]
- CFU after ampicillin exposure (W3110; Fe3+ 250 uM): 5 × 10^8 CFU
- CFU after ampicillin exposure (W3110; MOPS, N/A (no Pi, no Fe3+)): 5 × 10^8 CFU
- CFU after ampicillin exposure (W3110; Pi 0.01 mM): 3 × 10^8 CFU
- CFU after ampicillin exposure (W3110; Pi 2 mM): 9 × 10^6 CFU
- CFU after ampicillin exposure [1]: 5.5 × 10^8 CFU and 5 × 10^8 CFU
- CFU after ampicillin exposure ([2]; MOPS, N/A (no Pi, no Fe3+)): 4 × 10^8 CFU
- CFU after ampicillin exposure ([2]; Pi 2 mM): 3 × 10^5 CFU
